Assay results reported in PubChem BioAssay AID485344 (National Center for Advancing Translational Sciences (NCATS), 2010).
Among all 340,000 compounds or so, about 6,900 (2%) were called active. Cut-off read from the data, not from the text of the source: active = inhibition above about 30%; inactive = below that, where a call was filed. This is a selection; strong and weak results do not stand in their true shares. Where no call is shown, the source filed none.

Biological target: D(2) dopamine receptor (Homo sapiens) (UniProt P14416)
Assay: HTS Assay for Allosteric Antagonists of the Human D2 Dopamine Receptor: Primary Screen for Antagonists; note: 0% is about no effect
Details: HEK293 TREx D2 cells, calcium flux, dopamine EC80; at 10 µM; stronger effect = higher value
Summary of the method: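 Measurement of antagonist activity uses fluorescent calcium dye in inducible HEK293 T-REx D2 cells: 10 s baseline, compound addition with 180 s read, EC80 dopamine addition with a further 180 s read.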

Chain of UniProt P14416 (P14416 whole entry, looked up): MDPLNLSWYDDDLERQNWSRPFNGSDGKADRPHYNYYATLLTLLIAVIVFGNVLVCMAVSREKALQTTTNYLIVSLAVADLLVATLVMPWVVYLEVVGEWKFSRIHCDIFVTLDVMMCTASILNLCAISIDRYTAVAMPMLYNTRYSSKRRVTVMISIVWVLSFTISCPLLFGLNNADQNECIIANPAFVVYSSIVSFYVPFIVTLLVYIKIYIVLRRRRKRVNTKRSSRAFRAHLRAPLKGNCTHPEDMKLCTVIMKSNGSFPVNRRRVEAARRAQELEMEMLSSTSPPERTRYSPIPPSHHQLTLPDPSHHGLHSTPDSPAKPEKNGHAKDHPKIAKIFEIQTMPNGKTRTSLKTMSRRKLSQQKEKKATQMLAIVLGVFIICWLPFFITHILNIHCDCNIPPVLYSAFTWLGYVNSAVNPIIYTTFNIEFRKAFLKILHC

In order of rising inhibition:
1. Cc1cc(C)cc(Nc2cc(C)nc3nc(-c4ccco4)nn23)c1  -27.7%
2. Cc1ccc(N2CC(NC(=O)C3CC3)CC2=O)cc1C (stereo not given)  -23.6%
3. CCCc1cc(=O)[nH]c(SCc2nc(-c3ccccc3F)no2)n1  -21.3%
4. CCOc1ccc(C(c2c(O)cc(C)n(Cc3ccco3)c2=O)N2CCN(c3ccccc3)CC2)cc1 (stereo not given)  -21.1%
5. Cn1nnnc1SCCCNCc1cc(Cl)ccc1OCc1ccccc1F  -20.2%
6. COC(=O)c1ccc(NC(=O)CC2C(=O)N(c3ccccc3)C(=O)N2Cc2ccco2)cc1 (stereo not given)  -19.2%
7. CCOC(=O)c1ccn(-c2nc(-c3cccc(OC)c3)cc(C(F)(F)F)n2)n1  -18.6%
8. CC(C)(C)c1ccccc1NC(=O)c1cnn2c(C(F)F)cc(-c3ccccc3)nc12  -16.4%
9. CC(=O)c1ccc(N2CCN(c3ncnc4c3cnn4C)CC2)cc1  -15.2%
10. CCOc1ccc(NC(=O)Cn2cc(C(=O)C3CC3)c3ccccc32)cc1  -14.6%
11. CCc1ccccc1NC(=O)Cn1c(=O)n(-c2ccccc2)c(=O)c2oc3ccccc3c21  -14.5%
12. Cc1cc(N2CCC(C(=O)NCCC(C)C)CC2)n2nc(C)c(-c3ccc(Cl)cc3)c2n1  -12.9%
13. Cc1ccc(CN(C(=O)c2ccccc2[N+](=O)[O-])c2ccccn2)cc1  -11.6%
14. CCN1CCC(N(Cc2ccc(F)cc2)C(=O)Nc2ccc(C)c(F)c2)CC1  -11.3%
15. Cc1ccc(N2CCN(C(=O)c3cn(C)c4ccc(S(=O)(=O)N5CCC(C)CC5)cc4c3=O)CC2C)cc1 (stereo not given)  -9.69%
16. CC(C)c1ccc(NC(=O)CCn2c(=O)c3cccn3c3ccccc32)cc1  -8.74%
17. CCOc1ccc(CCNC(=O)c2ccc3c(c2)sc2nc(-c4ccc(F)cc4)cn23)cc1OCC  -8.31%
18. Cc1cccc(CNC(=O)c2ccc(NC(=O)N3CCSc4ncccc43)cc2)c1  -7.97%
19. CC(=O)c1ccc(NC(=O)c2cnc(N3CCCC3)nc2C)cc1  -7.56%
20. Cc1ccc(Cl)cc1NC(=O)Cn1ncc2c(C)n(Cc3ccccc3F)c(C)c2c1=O  -7.33%
21. CSc1cccc(NC(=O)CN2C(=O)COc3ccc(S(=O)(=O)N4CCC(C)CC4)cc32)c1  -7.25%
22. CCOC(=O)c1cc(S(=O)(=O)Nc2ccccc2OCC)[nH]n1  -6.81%
23. Cc1c2cnn(-c3ccccc3)c(=O)c2c(C)n1CC(=O)Nc1ccccc1Br  -6.69%
24. COc1ccc2c(c1)CC(C(=O)Nc1ccc(Br)c(C)c1)CO2 (stereo not given)  -6.03%
25. Cc1cc(C)cc(NC(=O)Cn2c(=O)n(Cc3ccc4c(c3)OCO4)c(=O)c3oc4ccccc4c32)c1  -5.58%
26. COc1cccc(C2CC(=O)Nc3c2c(=O)n(C)c2nc4ccccc4n32)c1 (stereo not given)  -4.45%
27. COc1ccc(C)cc1NC(=O)CN1C(=O)COc2ccc(S(=O)(=O)NC3CCCC3)cc21  -3.74%
28. COc1ccc(-c2nc(-c3ccccc3)c(-c3ccc(F)cc3)[nH]2)c(OC)c1C  -3.48%
29. COc1ccccc1-c1cc(C(F)(F)F)nc(S(=O)(=O)CCCC(=O)Nc2ccc(F)cc2F)n1  -3.31%
30. COc1ccc(-n2nc(C(=O)Nc3cccc(C)n3)c3c4ccccc4n(C)c3c2=O)cc1  -2.14%
31. Cc1cccc(C(=O)Nc2nc(-c3nnn(-c4cc(C)ccc4C)c3C)ns2)c1  -1.96%
32. CCCC12CN3CC(CCC)(CN(C1)C3c1c(C)[nH]c(=O)[nH]c1=O)C2=O (stereo not given)  -1.05%
33. COc1ccc(NC(=O)CSc2nncn3c2cc2occc23)c(OC)c1  -1.03%
34. COc1cccc(CNCCSc2nnnn2C)c1OCc1ccc(F)cc1  -0.743%
35. Cc1ccc(-c2nc3c4ccccc4n(CC(=O)N4CCN(c5ccc(F)cc5)CC4)c(=O)n3n2)cc1  0.31%
36. CCOC(=O)c1c(C)[nH]c(C)c1S(=O)(=O)N(C)CC(=O)Nc1cccc(C(F)(F)F)c1  0.341%
37. CCOC(=O)C1CCN(C(=O)Cn2ncc3c([nH]c4ccccc43)c2=O)CC1  0.55%
38. CC(C)Oc1ccc(C(=O)N2CCC(c3nc4ccccc4s3)CC2)cc1  0.559%
39. CCOC(=O)c1c(C)oc2nc(C)nc(NCCc3ccc(OCC)cc3)c12  0.875%
40. Cc1cccc(CNC(=O)Cn2ccc3cc(S(=O)(=O)N4CCC(C)CC4)ccc32)c1  1.42%
41. COc1ccc(C(=O)NCC(=O)OCc2cc(=O)n3nc(C4CCCCC4)sc3n2)cc1  1.7%
42. O=C(Nc1ccc(F)cc1F)N1CCN(c2ccc(Cl)c(Cl)c2)CC1  1.83%
43. Cc1cccc(CNC(=O)C2CCN(S(=O)(=O)c3ccc4c(c3)CCCN4C(=O)C3CCC3)CC2)c1  2.16%
44. CN(C)CCNC(=O)c1ccc(Cn2c(=O)c3cccn3c3cccnc32)cc1  2.56%
45. O=S(=O)(NCCc1csc2nc(-c3ccc(F)cc3)nn12)c1ccc(Oc2ccccc2)cc1  2.89%
46. CCC(C)NC(=O)Cn1c(-c2cccs2)cc2cc(Cl)ccc21 (stereo not given)  2.96%
47. CCOc1ccc(NC(=O)C(C)Sc2nc3ncccc3o2)cc1 (stereo not given)  3.61%
48. O=C(Cn1c(=O)n(Cc2nc(-c3ccccc3)no2)c(=O)c2cc3c(cc21)OCO3)Nc1cccc(C(F)(F)F)c1  3.87%
49. CCC(C)NC(=O)Cn1c(=O)n(-c2cc(OC)cc(OC)c2)c(=O)c2ccccc21 (stereo not given)  4.23%
50. CC(C)(C)NC(=O)c1ccc2nc(CCc3ccccc3)oc2c1  4.51%
51. O=C(Cn1c(=O)n(Cc2ccco2)c(=O)c2ccccc21)Nc1cccc(F)c1  4.82%
52. Cc1ccccc1CNC(=O)c1ccc2[nH]c(C)c(C)c2c1  5.01%
53. Cc1ccc(C2C=C(c3ccc(Cl)cc3)Nc3nc(NC(=O)c4ccco4)nn32)cc1 (stereo not given)  5.21%
54. COc1cc(C(=O)Nc2ccc(-c3nc4cc(C)c(C)cc4o3)cc2)cc(OC)c1OC  5.24%
55. CCN(C(=O)CSc1nc(-c2ccc(C(C)C)cc2)no1)c1ccccc1  5.26%
56. Cc1ccc(C(CC(=O)Nc2ccc(F)c(Cl)c2)N2Cc3ccccc3C2=O)cc1 (stereo not given)  5.32%
57. Cc1ccc(-n2ncc(C(=O)NCCN3CCc4ccccc4C3)c2C2CCNCC2)cc1C  5.37%
58. Cc1ccccc1CSc1nc2c([nH]c3ccccc32)c(=O)n1C  5.42%
59. COc1ccc(NC(=O)Cn2c(=O)n(Cc3ccco3)c(=O)c3sc4ccccc4c32)cc1OC  5.61%
60. Cc1ccc(-n2c(-c3ccc(Br)cc3)nc3c(cnn3-c3ccccc3)c2=O)cc1  5.87%
61. CC1CCN(S(=O)(=O)c2ccc3c(c2)N(CC(=O)NCCCN2CCCC(C)C2)C(=O)CS3)CC1 (stereo not given)  5.96%
62. CCOC(=O)c1ccc(NC(=O)CCc2c(C)nc3cc(-c4ccc(OC)cc4OC)nn3c2C)cc1  7.46%
63. CCOC(=O)c1[nH]c(C)c(CCC(=O)Nc2ccc(Br)c(C)c2)c1C  7.46%
64. CC(=O)Nc1ccc(S(=O)(=O)N2CCC(n3c(C)nc4cccnc43)CC2)cc1  7.55%
65. CCc1nn(Cc2c(C)cc(C)cc2C)c(=O)c2cc3cc(C)ccc3n12  8%
66. Cc1cccc(N2CCN(S(=O)(=O)c3c(C(=O)N4CCC(C)CC4)c(C)n(C)c3C)CC2)c1C  8.64%
67. COc1ccc(-c2ccc(CCC(=O)O)n2-c2cc(Cl)ccc2O)cc1  9.67%
68. Cc1ccccc1-c1nc(CS(=O)(=O)CC(=O)NCCCN2CCN(C)CC2)c(C)o1  10.2%
69. Cc1cccc(NC(=O)c2oc3ccc(S(=O)(=O)N4CCC5(CC4)OCCO5)cc3c2C)c1C  10.8%
70. Cc1ccc(NC(=O)Cn2cnc3sc(C)c(S(=O)(=O)N4CCN(c5ncccn5)CC4)c3c2=O)cc1F  12.8%
71. COc1ccc(NC(=O)c2cc(=O)c3ccc(C)c(C)c3o2)cc1Cl  13%
72. CC1CN(C(=O)CCC(=O)NCc2ccccc2)c2cc(Cl)ccc2O1 (stereo not given)  13.4%
73. COc1ccc(-n2c(=O)c3c4c(sc3n3c(SC(C)C)nnc23)COC(C(C)C)C4)cc1 (stereo not given)  13.5%
74. CCCCCc1nn2cc(-c3ccccc3)nc2s1  13.5%
75. CCOc1ccc(-c2csc(-c3c(N)c(C(=O)c4ccc5c(c4)OCO5)n4ccccc34)n2)cc1  14.1%
76. Cc1ccc2c(c1)-c1ncc(C(=O)c3cc(Br)ccc3O)cc1CO2  15.8%
77. COc1cc(C(=O)Nc2nonc2-c2ccc(Cl)cc2)cc(OC)c1OC  17.5%
78. O=C(Nc1nnc(S(=O)(=O)N2CCCc3ccccc32)s1)c1ccc(Cl)cc1  19%
79. Cc1ccc(SCCNC(=O)CN(c2cccc(C)c2C)S(C)(=O)=O)cc1  20.5%
80. Cc1nc2sccn2c(=O)c1S(=O)(=O)Nc1ccc(N2CCN(C(=O)C(C)C)CC2)cc1  23.4%
81. CC1=C(C(=O)NCc2cccc(Cl)c2)C2(CCCCCC2)OC1=O  26.3%

`O=c1c2ccccc2[nH]c(=S)n1CCN1CCN(Cc2ccccc2)CC1` was tested, and the inhibition was active: 51.7%.
`O=C(Cn1cccc1C(=O)c1ccccc1)NCCN1CCOCC1` was tested, and the inhibition was active: 54.9%.
With `COc1cccc(N2CCN(Cc3ccsc3)CC2)c1` the inhibition was active: 48%.
With `COC(=O)C1CCN(Cc2nnc(-c3ccccc3)o2)CC1` the inhibition was active: 65.6%.
`Nc1nnc(CC(=O)N/N=C/c2cccc(OCCOc3ccccc3)c2)s1` was tested, and the inhibition was active: 30.5%.
With `O=C(c1ccc(N2C(=O)C3CC=C(Cl)CC3C2=O)cc1)N1CCCCC1` (stereo not given) the inhibition was active: 37.7%.
`NS(=O)(=O)c1ccc(NC(=S)Nc2ccn(Cc3cccc4ccccc34)n2)cc1` was tested, and the inhibition was active: 42.3%.
For `Cc1ccc(Cl)cc1NC(=O)COC(=O)c1ccc(N2CCCC2)c([N+](=O)[O-])c1`, the inhibition was active: 57.2%.
For `CC(Oc1cc2oc(=O)cc(-c3ccccc3)c2cc1Cl)C(=O)NCC1CCC(C(=O)O)CC1` (stereo not given), the inhibition was active: 43.2%.
With `O=C(CSc1ccc(Br)cc1)NCC(c1ccco1)N1CCCCC1` (stereo not given) the inhibition was active: 38.9%.
`CNc1snc(C)c1C(=O)OCC(=O)N(C)Cc1ccccc1` was tested, and the inhibition was active: 35.1%.
For `Cn1c(CN2CCCCC2)nc2cc(NC(=O)c3ccccc3)ccc21`, the inhibition was active: 36.1%.
For `CC1CC(C)CN(CCOCCSc2ccc(Cl)cc2)C1` (stereo not given), the inhibition was active: 64.7%.
With `O=C(COC(=O)c1ccc(Sc2ccccc2)c([N+](=O)[O-])c1)NC1CCS(=O)(=O)C1` (stereo not given) the inhibition was active: 32.2%.
